The structures appear in SMILES notation. In all, about 39,000 compounds went through this assay and about 220 (0.56%) showed activity. This is one part of the list.

Consider 16 molecules from the supplement of paper PMC9446081.
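Further: static incubation at 37 °C against the wild-type strain, values averaged over two biological replicates.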

The assay has as its system Escherichia coli K-12 BW25113. Nature of the assay: relative growth (OD600 normalised to plate interquartile mean) (fraction); higher = less growth inhibition, active = 0.2 or less. The conditions noted are these: 50 µM; LB; incubation time: overnight (16-24 h).
Consider `C[C@@H]1CCCCO[C@@H](CN(C)Cc2ccc(Cl)c(Cl)c2)[C@H](C)CN([C@H](C)CO)C(=O)c2cc(NS(=O)(=O)c3cn(C)cn3)ccc2O1`, for which the relative growth was inactive: 0.986.

Take `COc1ccc(NC(=O)Nc2ccc3c(c2)C(=O)N([C@@H](C)CO)C[C@H](C)[C@H](CN(C)Cc2ccncc2)OCCCC[C@@H](C)O3)cc1`: the relative growth is inactive: 1.01. In the case of `CCO[C@H]1OC(C(=O)N2CCN(Cc3ccc4c(c3)OCO4)CC2)=C[C@@H](c2ccc(Br)cc2)[C@@H]1CCCOC(=O)NCCCCCC(=O)NO`, the relative growth was inactive: 0.998. The value for `CC(=O)OC[C@]12[C@H](OC(=O)c3ccccc3)C[C@@H]3[C@@H](OC(C)=O)[C@]1(OC3(C)C)[C@H](C)C[C@H](OC(C)=O)[C@@H]2OC(C)=O` was inactive: 1.01; that for `O=C(N[C@@H]1C=C[C@@H](CC(=O)N2CCOCC2)O[C@@H]1CO)c1ccc2c(c1)OCO2` was inactive: 1.03. For the molecule `Cc1ccc(S(=O)(=O)N(C)C[C@H]2Oc3ccc(NC(=O)NC(C)C)cc3CC(=O)N([C@@H](C)CO)C[C@H]2C)cc1`, the relative growth is inactive: 0.995. Turning to `C[C@@H]1CN([C@@H](C)CO)S(=O)(=O)c2ccc(-c3cccc(C(=O)N(C)C)c3)cc2O[C@@H]1CN(C)C(=O)Cc1ccccn1`, the relative growth was inactive: 0.984.

For `CCC(=O)Nn1c(C)nnc1C`, the relative growth is inactive: 1.01. As to `COc1ccc(C(=O)Nc2ccc(CN3C(=O)[C@]4(O[C@H](CC(=O)N5Cc6ccccc6C[C@H]5CO)[C@@H]([Si](C)(C)c5ccc(OC)cc5)[C@@H]4C)c4ccccc43)cc2)cc1`, the relative growth is inactive: 1.08. Regarding `C[C@@H]1CN([C@@H](C)CO)C(=O)c2cc(NC(=O)CCCCCC(=O)Nc3ccccc3N)ccc2O[C@H]1CN(C)C(=O)Nc1ccccc1`, the relative growth is inactive: 1.02. The value for `C=CCC[C@@H](Cc1ccc(F)cc1)C(=O)OC[C@H]1CCCN1C(=O)[C@H](CC=C)CC(=O)N(CCO)Cc1ccccc1` was inactive: 1.05. Consider `COC(=O)CCn1cc(F)c(N)nc1=O`, for which the relative growth was inactive: 0.948. Consider `COCC(=O)Nc1ccc2c(c1)OC[C@@H](C)N(C(=O)Cc1ccccn1)C[C@@H](C)[C@H](OC)CN(C)C2=O`, for which the relative growth is inactive: 0.997. On to `COCCOC(=O)N1C(=O)[C@@]2(c3cc(C#CC4(O)CCCCCC4)ccc31)[C@H](c1ccc(OCCO)cc1)N1[C@H](c3ccccc3)[C@H](c3ccccc3)OC(=O)[C@H]1[C@@H]2C(=O)N1CCCCCCC1`, for which the relative growth was inactive: 1.04.

As to `Cc1noc(C)c1S(=O)(=O)N(C)C[C@@H]1OCc2cnnn2CCCC(=O)N([C@@H](C)CO)C[C@@H]1C`, the relative growth is inactive: 0.977.

As for `O=C(O)[C@@H]1C2C=CC3(O2)C1C(=O)N1CCS[C@H]13` (stereo partly specified), the relative growth is inactive: 0.999.
